In the supplement of paper PMC10338343:
± gives the standard deviation. This is a selection; strong and weak results do not stand in their true shares.

Test system: MIWI (PIWIL1) piRISC loaded with L1MC piRNA (30 nt)
Test: pre-steady-state target cleavage rate (min^-1); MIWI and MILI are mouse PIWI proteins and EfPiwi is from a freshwater sponge; tags in brackets are library labels; higher = faster piRNA-guided slicing of the target
Settings: guide: L1MC piRNA 5'p-UAACUAAAUACUAUGCAAGCUGUAGGUCCU
Procedure, shortened: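 In this Cleave-'n-Seq assay, uncleaved targets were sequenced and normalised to depth and to weakly complementary targets. They came from a transcribed, DNA-blocked target RNA library […] mixed with 1 nM active affinity-purified piRISC carrying one synthetic guide, with or without 500 nM GTSF1 partner protein, in HEPES–potassium acetate buffer at 33 °C for 0–8 or 0–960 min. After three trials were pooled and k3 was capped at 0.0001 min^-1, the pre-steady-state cleavage rate was obtained from a burst-and-steady-state fit.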

[1] = auxiliary factor: 500 nM mouse GTSF1
[2] = auxiliary factor: none (no GTSF1)
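Further: 1 nM active piRISC with 0.1 nM target library at 33 °C single turnover.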

| Sequence | pre-steady-state target cleavage rate [1] | pre-steady-state target cleavage rate [2] |
| --- | --- | --- |
| UCCUGGAUGUCCUUGCAUAGUAUUUAGUAA | 0.0673 ± 0.013 | 0.00569 ± 0.0017 |
| UCCUGGAAGAGCAUGCAUAGUAUUUAGUUA | 0.57 ± 0.043 | 0.00937 ± 0.0025 |
| UCCUCCUACACCUUGCAUAGUAAUUAGUUA | 0.569 ± 0.076 | 0.0139 ± 0.0021 |
| AGGACCUACAGCUUGCAUACUUUUUAGUUA | 0.0575 ± 0.011 | 0.00783 ± 0.0023 |
| UCGACCUACAGCUUGCAUAGUAUUAUCUUA | 0.32 ± 0.037 | 0.00466 ± 0.0026 |
| UCCUGGAUGAGCAAGCAUAGUAUUUAGUUA | 0.11 ± 0.012 | 0.00317 ± 0.0017 |
| UCCUGGAACAGCUUGCAAGUAUUUAGUUA | 0.142 ± 0.018 | 0.00919 ± 0.004 |
| UGCACCUACAGCUUGCAUAGUAUAUAGUUA | 0.828 ± 0.077 | 0.0452 ± 0.012 |
| UCCUGGAAGAGCUUGCAUAGUUUUUAGUUA | 0.203 ± 0.018 | 0.0241 ± 0.0075 |
| UGGACCAACACCUUGCAUAGUAUUUAGUUA | 1.07 ± 0.044 | 0.05 ± 0.0097 |
| UCCUGGUUCAGCUUGCAUAGUAUUAAGUUA | 0.454 ± 0.049 | 0.0235 ± 0.0062 |
| AGGACCUACAGGUUGCAUAGUAUUUAGAAA | 0.457 ± 0.046 | 0.0106 ± 0.0034 |
| UCCUGGAUGAGCUUGCAUAGUAUUUAGUUC [g2:g21:cont:t1C] | 0.441 ± 0.027 | 0.0311 ± 0.0083 |
| UCCUGGAACAGCAUGCAUAGUUUUUAGUUA | 0.24 ± 0.024 | 0.0229 ± 0.0057 |
| UCCACCAUACAGCUUGCAUAGUAUUUAGUUA | 0.902 ± 0.032 | 0.102 ± 0.02 |
| UCGACCUACAGCUUCGCAUAGUAUUUAGUUA | 1.33 ± 0.07 | 0.0168 ± 0.004 |
| AGGACCUACAGCUUGCAUUGAAUUUAGUUA | 0.287 ± 0.025 | 0.012 ± 0.004 |
| AGGAGCUACAGCUUGCAUAGUAUAUAGUUA | 0.762 ± 0.069 | 0.0433 ± 0.0094 |
| UCCUGGUACACCUUGCAUAGUAUUAAGUUA | 0.29 ± 0.087 | 0.00503 ± 0.0036 |
| UCCACCUUCAGCUUGCAUAGUAUUUAGUUA | 0.933 ± 0.045 | 0.0531 ± 0.0087 |

| Sequence | pre-steady-state target cleavage rate [1] | pre-steady-state target cleavage rate [2] |
| --- | --- | --- |
| UGGACCAUACAGCUUGCAUAGUAUUUAGUUA | 1.3 ± 0.066 | 0.0868 ± 0.013 |
| UCCUGGAUCAGCUUGCAUAGUAGUUUAGUUA | 0.253 ± 0.031 | 0.00814 ± 0.0033 |
| UCCACCUACAGGUUGCAUAGUAUUUUGUUA | 0.894 ± 0.12 | 0.0198 ± 0.0029 |
| UCCUGGAACAGGUUGCAUACUAUUUAGUUA | 0.209 ± 0.024 | 0.0129 ± 0.0035 |
| UGGACCUACAGCUUGCAUAGAAUUUAGAAA | 0.293 ± 0.04 | 0.00777 ± 0.003 |
| UCCACCUACAGCUUGCAUAGUAUUUAGCUA | 0.247 ± 0.067 | 0.00593 ± 0.0029 |
| UCCACCUACAGCUUGCAUUGUUUUUAGUUA | 0.0873 ± 0.011 | 0.00736 ± 0.0018 |
| UCCACCUACAGCUUGCAUAGUAUUUAUGUUA | 0.416 ± 0.034 | 0.0318 ± 0.0075 |
| UCCUGGAUGUCCUUGCAUCGUAUUUAGUUA | 0.0131 ± 0.0059 | 0.00455 ± 0.0017 |
| UCCUGGAUGAGCUUGCAAAGUUUUUAGUUA | 0.0598 ± 0.0094 | 0.0127 ± 0.0037 |
| UCCUGCUACAGCUUGCAUAGUAUUUACGUUA | 0.695 ± 0.05 | 0.0244 ± 0.0065 |
| UCGACCUAGAGCUUGCAUAGUAUUAAGUUA | 0.618 ± 0.058 | 0.0195 ± 0.0029 |
| UCCACCUACAGCUUGCAUAGUAUAUUAGUUA | 0.828 ± 0.05 | 0.0121 ± 0.0033 |
| UGGUGGUACAGCUUGCAUAGUAUUUAGUUA | 1.3 ± 0.046 | 0.0711 ± 0.012 |
| UCCUGGUACAGCUUGCAUAGUAUUGAGUUA | 0.317 ± 0.051 | 0.0326 ± 0.007 |
| UCCUGGUACAGCUUGGAUAGUAUUUACUUA | 0.0106 ± 0.0064 | 0.00411 ± 0.0029 |
| UCCUGCUACAGCUUCCAUAGUAUUUAGUUA | 0.0769 ± 0.02 | 0.00307 ± 0.0026 |
| UCCUGGAUGAGCUUGCAUAGUAUUUAGUUU [g2:g21:cont:t1U] | 1.05 ± 0.05 | 0.0579 ± 0.015 |
| UCCUCCUACUGCUUGCAUAGUAUAUAGUUA | 0.472 ± 0.026 | 0.0228 ± 0.0045 |
| UCCUGGAUGUCCUUGCAUAGUAUUUACUUA | 0.0774 ± 0.014 | 0.00856 ± 0.0025 |

| Sequence | pre-steady-state target cleavage rate [1] | pre-steady-state target cleavage rate [2] |
| --- | --- | --- |
| UCCUGGAUCAGCUUGCAUAGAAUUAAGUUA | 0.0685 ± 0.0098 | 0.00717 ± 0.0037 |
| UCCUCCUACAGCUUGCAUACUAUUUACAAA | 0.149 ± 0.025 | 0.00271 ± 0.0026 |
| UCCUGGAUGUCCUUGCAUAAUAUUUAGUUA | 0.0261 ± 0.0065 | 0.00475 ± 0.0022 |
| UCGACCUACUCGUUGCAUAGUAUUUAGUUA | 1.03 ± 0.035 | 0.022 ± 0.0041 |
| AGGACCUACAGCUUGCAUUGUAUAUAGUUA | 0.395 ± 0.031 | 0.0219 ± 0.0046 |
| UCCUGGAUCAGCAUGGAUAGUAUUUAGUUA | 0.623 ± 0.072 | 0.00932 ± 0.0033 |
| UCCUGGAUGUCGAUUGCAUAGUAUUUAGUUA | 0.0517 ± 0.008 | 0.00436 ± 0.002 |
| UGGACCAACAGCUUGCAUAGAAUUUAGUUA | 0.357 ± 0.021 | 0.0276 ± 0.0072 |
| UGGACCUACAGCUUGCAUAGUAUUUUGAUA | 0.255 ± 0.029 | 0.0162 ± 0.0037 |
| UGGACCUACAGCUUGCAUAGUAAUUUAGUUA | 0.131 ± 0.013 | 0.0131 ± 0.0024 |
| UCGACCUACACCAUGCAUAGUAUUUAGUUA | 0.854 ± 0.041 | 0.0165 ± 0.0031 |
| UCCUGGAUGUGCUUGCAAAGUUUUUAGUUA | 0.00751 ± 0.0037 | 0.00575 ± 0.002 |
| UCCUGGAACAGCUUGCAUAGAAUUUAGAAA | 0.162 ± 0.031 | 0.00707 ± 0.0036 |
| UCCUCCUACAGCUAGCAUAGUAUUUACUUA | 0.395 ± 0.034 | 0.0115 ± 0.0024 |
| AGGACCUACAGCUUGCAUAGUGAUUUAGUUA | 0.127 ± 0.023 | 0.0106 ± 0.0037 |
| UCCUGGAUCAGCUUACAUAGUAUUUAGUUA | 1.22 ± 0.059 | 0.0236 ± 0.0066 |
| UCCUGGUUCAGCUUGCAUUGUAUUUAGUUA | 0.61 ± 0.028 | 0.0343 ± 0.01 |
| UGGACCUACAGCAUGCAAAGUAUUUAGUUA | 1.07 ± 0.058 | 0.0143 ± 0.0031 |
| UCCUCCUACAGCUUGCAUAGUAUCUAGUUA | 0.492 ± 0.029 | 0.0356 ± 0.0051 |
| AGGACCUACAGCUUGCAUAGUAUAAAGUUA | 0.563 ± 0.046 | 0.0366 ± 0.0098 |
